Reference: publication PMC9574860, “Chemical Toolkit for PARK7: Potent, Selective, and High-Throughput” (Journal of Medicinal Chemistry, 2022)
Screen size: about 7,900 compounds; about 400 (5.1%) showed an effect of 50% or more. The list shows a part of the results.

Each compound was assayed against Parkinson's disease protein 7 (PARK7/DJ1) (human, UniProt Q99497) (assay: primary screen, percent inhibition; read as competition with a fluorescent probe by fluorescence polarization; higher = more effect of the substance). Settings: 100 µM.
Chain of Parkinson's disease protein 7 (PARK7/DJ1) (Q99497 whole entry, looked up, the tested form may be a part): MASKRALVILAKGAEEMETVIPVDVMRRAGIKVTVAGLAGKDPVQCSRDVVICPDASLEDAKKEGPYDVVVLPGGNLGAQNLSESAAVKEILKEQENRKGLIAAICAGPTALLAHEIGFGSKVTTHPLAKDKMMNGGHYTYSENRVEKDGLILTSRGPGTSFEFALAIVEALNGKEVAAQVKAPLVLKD
Outline: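 Covalent fragments at 100 μM final were incubated 2 h with 0.2 μM PARK7, then 20 nM probe JYQ-107 added for a further 2 h. Fluorescence polarization read at 480/520 nm; relative FP loss versus reference controls gave remaining enzyme activity.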
Work on CC1CC1C(=O)N1CCCC(CS(=O)(=O)F)C1 (stereo not drawn) yielded an Inhibition % of 71.5%. Work on O=C(CCl)NCc1ccccc1OC1CCCC1 yielded an Inhibition % of 29.8%. In the case of COC(Cc1ccccc1F)OC, the Inhibition % is reported as 7.12%. Compound O=C(c1ccc(S)nc1)N1CCCC1 has an Inhibition % of 40.7%. CC1(C)OB(c2ccc(C(F)(F)F)c(Cl)c2)OC1(C)C was tested, and the Inhibition % was 7.89%. In the case of CC1(C)OB(c2ccc3nscc3c2)OC1(C)C, the Inhibition % is reported as 21.3%. O=C(C=Cc1nc2ccccc2o1)N1CCCCCC1 showed an Inhibition % of 19.2%. Cc1csc(C2CCN(C(=O)C3CSC(=O)N3)CC2)n1 (stereo not drawn) was tested, and the Inhibition % was 6.86%. CCc1cc(N)nc(S)n1 was tested, and the Inhibition % was 14.3%. With O=C(CCN1C(=O)CCC1=O)Nc1cc(F)cc(F)c1 the Inhibition % was 5.96%. Cc1ccsc1C=C(C#N)C(N)=S was tested, and the Inhibition % was 3.4%. Work on C=CC(=O)Nc1nc(-c2ccc3c(c2)OCO3)cs1 yielded an Inhibition % of 5.39%. C=CC(=O)N[C@@H](C)C1CCCC(C)C1 (stereo partly drawn) gave an Inhibition % of 22.6%. O=C1NCCCc2nn(CCS(=O)(=O)F)cc21 showed an Inhibition % of 15.5%. NC(=O)C1CCCN(S(=O)(=O)C=Cc2ccccc2)C1 (stereo not drawn) showed an Inhibition % of 6.58%. Work on O=C1OCCC1N1CCN(c2ccc(O)cc2)CC1 (stereo not drawn) yielded an Inhibition % of 28.7%. In the case of Cc1cccc(Nc2nccnc2C#N)c1, the Inhibition % is reported as 7.87%. In the case of O=C(Oc1ccccc1)N1CCN(CCCO)CC1, the Inhibition % is reported as 6.21%. In the case of C=CC(=O)N1CC(C)(C(N)=O)C1, the Inhibition % is reported as 14.2%. For CCOc1ccc(S(=O)(=O)n2ccnc2)cc1C, the Inhibition % was 11.6%. Cl.Cl.O=C(O)C1CCN(C(=O)C=Cc2nc3ccccc3s2)C1 (stereo not drawn) gave an Inhibition % of 9.53%. Cc1cc(N)nc(S)n1 was tested, and the Inhibition % was 13.7%. Compound O=S(=O)(F)c1cccnc1 has an Inhibition % of 17.7%. CCS(=O)(=O)c1ccc(NC(=O)CCl)c(O)c1 showed an Inhibition % of 7.84%. In the case of CC1(C)OB(c2ccnc3ccccc23)OC1(C)C, the Inhibition % is reported as 7.25%. For C=CC(=O)N1CCN(CCOC)C(=O)C1, the Inhibition % was 13.8%. COc1ccc(B(O)O)cc1CN(C)C.Cl gave an Inhibition % of 8.9%. C=CC(=O)Nc1ccc2c(c1)OCO2 showed an Inhibition % of 16%. With C=CC(=O)NC1CCN(C2CC2)CC1 the Inhibition % was 10%. Compound C=CC(=O)NCCc1ccnn1C has an Inhibition % of 5.79%. For C=CC(=O)Nc1ccccc1F, the Inhibition % was 11.3%. With C=CC(=O)N1CCC(NC(=O)c2ccccc2)CC1 the Inhibition % was 4.46%. With CCCNS(=O)(=O)C=Cc1ccccc1 the Inhibition % was 5.36%. In the case of COc1cc(B2OC(C)(C)C(C)(C)O2)ccc1O, the Inhibition % is reported as 12.8%. CC1(C)OB(CC2CCCNC2)OC1(C)C.Cl (stereo not drawn) was tested, and the Inhibition % was 10.4%. For N#Cc1ccc(C(=O)N[C@@H]2C[C@@H](O)C23CCOCC3)[nH]1, the Inhibition % was 8.8%. For C=CC(=O)N1CCSC2(CCCCC2)C1, the Inhibition % was 5.08%. C#CC(C)(C)N(C)S(=O)(=O)c1cccnc1C#N gave an Inhibition % of 8.71%. Cc1csc(N2CCCN(C3CCOC3=O)CC2)n1 (stereo not drawn) was tested, and the Inhibition % was 4.3%. In the case of CCN(C(=O)CC1C=CS(=O)(=O)C1)c1ccccc1C (stereo not drawn), the Inhibition % is reported as 4.03%. Work on Cl.Cl.O=C(O)C1CCN(C(=O)C=Cc2cncc(F)c2)C1 (stereo not drawn) yielded an Inhibition % of 8.2%. C=CC(=O)N1CCC(C2CCCCO2)CC1 (stereo not drawn) showed an Inhibition % of 11.7%. In the case of O=C(Nc1ccccc1F)N1CCC(C2OCCO2)CC1, the Inhibition % is reported as 5.67%. Cl.O=C(CCl)NCCN1CCc2ccccc21 gave an Inhibition % of 18.9%. N#Cc1c(-c2ccccc2)nc(S)[nH]c1=O showed an Inhibition % of 13.2%. N#Cc1ncn(CC(=O)NCc2ccc(Cl)cc2)n1 was tested, and the Inhibition % was 2.75%. Work on CC1(C)OB(c2cc(F)cc(F)c2Br)OC1(C)C yielded an Inhibition % of 3.76%. Compound Cc1cccc(NC(=O)CCl)c1 has an Inhibition % of 8.99%. C=CC(=O)N1CCCc2c1nc[nH]c2=O gave an Inhibition % of 20.2%. For ClCC1CN(Cc2ccccc2)CCCO1 (stereo not drawn), the Inhibition % was 2.58%. With Cc1ccc(C=CS(=O)(=O)N2CCOCC2C#N)cc1 (stereo not drawn) the Inhibition % was 2.61%. C=CC(=O)Nc1cccc(C(=O)NC2CC2)c1 gave an Inhibition % of 11.9%. COC(Cc1ccc(F)cc1)OC gave an Inhibition % of 13.8%. In the case of O=C1OCCC1Oc1ncnc2ccccc12 (stereo not drawn), the Inhibition % is reported as 4.34%. COc1ccc(-c2ccncc2)cc1B(O)O showed an Inhibition % of 6.7%. With C=CC(=O)NC(C)c1nnnn1C1CC1 (stereo not drawn) the Inhibition % was 5.13%. With O=C(CC1SC(=O)NC1=O)Nc1ccc(Cl)cc1 (stereo not drawn) the Inhibition % was 95.7%. In the case of Cc1ccc(S(=O)(=O)N2CCN(C(=O)CCl)CC2)cc1, the Inhibition % is reported as 11.5%. O=S(=O)(F)c1ccc(C(F)(F)F)cn1 was tested, and the Inhibition % was 6.36%. C=CC(=O)N1CCCC(S(=O)(=O)N(C)C)C1 (stereo not drawn) was tested, and the Inhibition % was 8.23%. C=CC(=O)N1CC(Oc2nccs2)C1 gave an Inhibition % of 6.56%. In the case of Cn1cc(C=C2N=C(c3ccc(F)c(F)c3)OC2=O)cn1, the Inhibition % is reported as 9.66%. Work on CC(=O)Nc1cccc2c1CCN(C1CC(C)OC1=O)C2 (stereo not drawn) yielded an Inhibition % of 1.86%. Work on CCc1nccn1S(=O)(=O)c1cc(Cl)c(C)cc1OC yielded an Inhibition % of 4.53%. In the case of COCCCn1c(S)nc2cc(Cl)ccc2c1=O, the Inhibition % is reported as 6.34%. For N#Cc1cccc(N2C[C@H](F)C[C@H]2C(N)=O)n1, the Inhibition % was 10.3%. OB(O)c1ccc2c(c1F)OCO2 showed an Inhibition % of 1.39%. Cc1onc(-c2ccccc2)c1B1OC(C)(C)C(C)(C)O1 showed an Inhibition % of 4.99%. In the case of O=C1SCCN1CC(=O)N1CCCc2ccccc21, the Inhibition % is reported as 7.03%. Work on O=C(CCl)c1ccc(F)c(C(=O)CCl)c1 yielded an Inhibition % of 100%. O=C(C=Cc1nc2ccccc2s1)N1CCCC1 showed an Inhibition % of 6.38%. O=C(CCl)Nc1ccc(C(=O)O)cc1 was tested, and the Inhibition % was 25.9%. Work on C=CC(=O)Nc1ccccc1 yielded an Inhibition % of 3.57%. CCCN1C(=O)CN=C1S showed an Inhibition % of 4.44%. Work on O=C(CCl)N(C1CCCCC1)C1CCCCC1 yielded an Inhibition % of 4.3%. CC1(C)OB(c2cccc3c2CNC3=O)OC1(C)C was tested, and the Inhibition % was 8.35%. With Cc1c(C=CC(=O)c2ccc(O)cc2)cc(C#N)n1C the Inhibition % was 8.15%. With Cc1csc(NC(=O)NC2CC(C)(C)OC2=O)n1 (stereo not drawn) the Inhibition % was 9.18%. Compound Cc1nc(C)c(C(=O)CCl)o1 has an Inhibition % of 95.2%. O=C1OCCC1Sc1nnc(-c2ccc(Cl)cc2)o1 (stereo not drawn) gave an Inhibition % of 4.59%. In the case of CCCN1CCN(c2oc(-c3ccco3)nc2C#N)CC1, the Inhibition % is reported as 9.64%. Cc1nc(C(C#N)=Cc2ccnn2C)sc1C gave an Inhibition % of 16.2%. For COCCOc1ccc2cc(B(O)O)ccc2c1, the Inhibition % was 4.68%. With C=CC(=O)N1CCC(CC#N)CC1 the Inhibition % was 3.54%. CC1(C)OB(c2ccc(N)c(O)c2)OC1(C)C was tested, and the Inhibition % was 92.7%. N#CC(=Cc1ccc(F)cc1)C(=O)N1CCCCC1 gave an Inhibition % of 9.17%. In the case of O=C1CCC(=O)N1Cc1ccc(F)c2cccnc12, the Inhibition % is reported as 3.52%. With C=CC(=O)NCc1nn(C)c2ccccc12 the Inhibition % was 14%. Work on C=CC(=O)Nc1ccc(C)c(F)c1 yielded an Inhibition % of 1.76%. For Cn1ccnc1C(NC(=O)CCl)c1ccccc1 (stereo not drawn), the Inhibition % was -4.28%. With CC=Cc1ccc(OCC2CO2)c(OC)c1 (stereo not drawn) the Inhibition % was 9.03%. Compound CC(C)C1NC(=O)C12CCOCC2 (stereo not drawn) has an Inhibition % of 5.86%. With CC(=O)Nc1ccc(B2OC(C)(C)C(C)(C)O2)cn1 the Inhibition % was 3.49%. C=CC(=O)NC1CCN(Cc2ccccc2)C1=O (stereo not drawn) showed an Inhibition % of 9.78%. For Cc1nn(S(=O)(=O)N2CCCCC2)c(C)c1C, the Inhibition % was 11.1%. C=CC(=O)NCCc1noc2ccccc12 gave an Inhibition % of 15.4%. In the case of C=CC(=O)NC1CCCCC1n1cccn1 (stereo not drawn), the Inhibition % is reported as 7.61%. N#CC(=Cc1cccs1)C(=O)Nc1ccc(C(=O)O)cc1 was tested, and the Inhibition % was 6.67%. For O=C(O)c1nccnc1S, the Inhibition % was 83.1%. Compound CCOc1ccc(C(C)C)cc1S(=O)(=O)n1ccc(C)n1 has an Inhibition % of 1.74%. C=CC(=O)NC1CCC2(CC1)OCCO2 was tested, and the Inhibition % was 9.19%. For C=CC(=O)N1CCCC(N2CCCC2=O)C1 (stereo not drawn), the Inhibition % was 4.38%. C=CC(=O)NCC1CSCCS1 (stereo not drawn) showed an Inhibition % of 9.78%. N#CC=C(Cl)c1ccc(F)cc1F gave an Inhibition % of 9.44%. Work on CN(C)C(=O)Sc1cnc2nccn2c1 yielded an Inhibition % of 3.18%. Work on COc1ccc(SCCN2C(=O)CCC2=O)cc1 yielded an Inhibition % of 7.03%. Compound CC1(C)OB(c2cc(F)ccc2[N+](=O)[O-])OC1(C)C has an Inhibition % of 6.19%. In the case of CN1CCN(c2cccc(C#N)n2)CC1, the Inhibition % is reported as 5.08%. N#Cc1c(N)nc2n1CCS2 was tested, and the Inhibition % was 4.18%. For N#Cc1cc(C(=O)NCC2CCn3ccnc3C2)c[nH]1 (stereo not drawn), the Inhibition % was 6.88%. Work on CC(=O)c1ccc(S(=O)(=O)F)cc1 yielded an Inhibition % of 34.9%. Work on COc1cc(C)c(Cl)cc1S(=O)(=O)n1cnc(C)c1 yielded an Inhibition % of 5.05%. C=CC(=O)N(C)C1CC(C(C)(C)C)C1 (stereo not drawn) was tested, and the Inhibition % was 7.25%. Work on C=CC(=O)NC1CCCc2nn(C)cc21 (stereo not drawn) yielded an Inhibition % of 10.2%. Work on Cc1ccoc1C(=O)Nc1cccc(S(=O)(=O)F)c1 yielded an Inhibition % of 7.02%. FC(F)(F)c1cccc(OCC2CO2)c1 (stereo not drawn) gave an Inhibition % of 9.5%. For C=CC(=O)N(C)c1ccccc1, the Inhibition % was 2.77%. With C=CC(=O)N1C[C@@H]2CCO[C@@H]2C1 (racemic) the Inhibition % was 7.04%. Compound CCCNC(=O)C(C#N)=Cc1ccc(C(F)(F)F)[nH]1 has an Inhibition % of 2.8%. C=CC(=O)N1CCCC1c1ccc(COC)o1 (stereo not drawn) was tested, and the Inhibition % was 1.71%. CC1(C)OB(c2ccc(NS(C)(=O)=O)cc2)OC1(C)C was tested, and the Inhibition % was 3.69%. Work on CC(=O)NCc1ccc(C(=O)CCl)s1 yielded an Inhibition % of 91.1%. With CNC(=O)CNS(=O)(=O)C=Cc1ccc(Cl)cc1 the Inhibition % was 0.98%. In the case of O=C(CCl)c1cc(F)ccc1O, the Inhibition % is reported as 38.8%. In the case of O=S(=O)(F)c1ccccc1O, the Inhibition % is reported as 9.92%. In the case of CN(C)C(=O)Oc1cccc2cccnc12, the Inhibition % is reported as 4.58%.
